# In the supplement of paper PMC8728848:
# The other results are listed elsewhere or left out.
# How the values were obtained:
# Assay in all cases: glycan array binding signal (z-score within array); higher = stronger binding
# Conditions in all cases: glycan notation: IUPAC condensed, linker removed
# Fuc(a1-2)Gal = target: Fuc(a1-2)Gal
# In short: (§1)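 Glycan array data were curated from 3228 arrays in the Consortium for Functional Glycomics database and kept only where the protein sequence was available. Glycan names were converted to IUPAC-condensed notation, and columns mapping to the same glycan were averaged. The binding signal is a within-array Z-score, averaged across arrays of the same protein sequence at different concentrations or buffers and across linkers. Negative Z-scores can be read as non-binding.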
# Fuc(a1-2)Gal(b1-3)GalNAc = target: Fuc(a1-2)Gal(b1-3)GalNAc
# In short: as §1
# [1] = target: Fuc(a1-2)Gal(b1-3)GalNAc(a1-3)[Fuc(a1-2)]Gal(b1-4)Glc
# In short: as §1
# [2] = target: Fuc(a1-2)Gal(b1-3)GalNAc(a1-3)[Fuc(a1-2)]Gal(b1-4)GlcNAc
# In short: as §1
# [3] = target: Fuc(a1-2)Gal(b1-3)GalNAc(b1-3)Gal
# In short: as §1
# [4] = target: Fuc(a1-2)Gal(b1-3)GalNAc(b1-3)Gal(a1-4)Gal(b1-4)Glc
# In short: as §1
# [5] = target: Fuc(a1-2)Gal(b1-3)GalNAc(b1-4)[Neu5Ac(a2-3)]Gal(b1-4)Glc
# In short: as §1
# Fuc(a1-2)Gal(b1-3)GlcNAc = target: Fuc(a1-2)Gal(b1-3)GlcNAc
# In short: as §1
# [6] = target: Fuc(a1-2)Gal(b1-3)GlcNAc(b1-2)Man(a1-3)[Fuc(a1-2)Gal(b1-3)GlcNAc(b1-2)Man(a1-6)]Man(b1-4)GlcNAc(b1-4)GlcNAc
# In short: as §1
# [7] = target: Fuc(a1-2)Gal(b1-3)GlcNAc(b1-2)Man(a1-3)[Fuc(a1-2)Gal(b1-3)GlcNAc(b1-2)Man(a1-6)]Man(b1-4)GlcNAc(b1-4)[Fuc(a1-6)]GlcNAc
# In short: as §1
# [8] = target: Fuc(a1-2)Gal(b1-3)GlcNAc(b1-3)Gal(b1-4)Glc
# In short: as §1
# [9] = target: Fuc(a1-2)Gal(b1-3)GlcNAc(b1-3)GalNAc
# In short: as §1
# [10] = target: Fuc(a1-2)Gal(b1-3)GlcNAc(b1-3)[Fuc(a1-2)Gal(b1-3)GlcNAc(b1-6)]GalNAc
# In short: as §1
# [11] = target: Fuc(a1-2)Gal(b1-3)GlcNAc(b1-3)[Fuc(a1-3)[Gal(b1-4)]GlcNAc(b1-6)]Gal(b1-4)Glc
# In short: as §1
# [12] = target: Fuc(a1-2)Gal(b1-3)GlcNAc(b1-3)[Gal(b1-4)GlcNAc(b1-6)]Gal(b1-4)Glc
# In short: as §1
# [13] = target: Fuc(a1-2)Gal(b1-3)GlcNAc(b1-3)[Neu5Ac(a2-6)Gal(b1-4)GlcNAc(b1-6)]Gal(b1-4)Glc
# In short: as §1
# [14] = target: Fuc(a1-2)Gal(b1-3)GlcNAc6S
# In short: as §1
# [15] = target: Fuc(a1-2)Gal(b1-3)[Fuc(a1-4)]GlcNAc
# In short: as §1
# [16] = target: Fuc(a1-2)Gal(b1-3)[Fuc(a1-4)]GlcNAc(b1-2)Man(a1-3)[Fuc(a1-2)Gal(b1-3)[Fuc(a1-4)]GlcNAc(b1-2)Man(a1-6)]Man(b1-4)GlcNAc(b1-4)GlcNAc
# In short: as §1
# [17] = target: Fuc(a1-2)Gal(b1-3)[Fuc(a1-4)]GlcNAc(b1-2)Man(a1-6)[Fuc(a1-2)Gal(b1-3)[Fuc(a1-4)]GlcNAc(b1-2)Man(a1-3)]Man(b1-4)GlcNAc(b1-4)[Fuc(a1-6)]GlcNAc
# In short: as §1
# [18] = target: Fuc(a1-2)Gal(b1-3)[Fuc(a1-4)]GlcNAc(b1-3)[Fuc(a1-3)[Gal(b1-4)]GlcNAc(b1-6)]Gal(b1-4)Glc
# In short: as §1
# [19] = target: Fuc(a1-2)Gal(b1-3)[Fuc(a1-4)]GlcNAc(b1-3)[Gal(b1-4)GlcNAc(b1-6)]Gal(b1-4)Glc
# In short: as §1
# Fuc(a1-2)Gal(b1-4)Glc = target: Fuc(a1-2)Gal(b1-4)Glc
# In short: as §1
# Fuc(a1-2)Gal(b1-4)Glc6S = target: Fuc(a1-2)Gal(b1-4)Glc6S
# In short: as §1
# Fuc(a1-2)Gal(b1-4)GlcNAc = target: Fuc(a1-2)Gal(b1-4)GlcNAc
# In short: as §1
# [20] = target: Fuc(a1-2)Gal(b1-4)GlcNAc(b1-2)Man
# In short: as §1
# [21] = target: Fuc(a1-2)Gal(b1-4)GlcNAc(b1-2)Man(a1-3)[Fuc(a1-2)Gal(b1-4)GlcNAc(b1-2)Man(a1-6)]Man(b1-4)GlcNAc(b1-4)GlcNAc
# In short: as §1
# [22] = target: Fuc(a1-2)Gal(b1-4)GlcNAc(b1-2)Man(a1-3)[Fuc(a1-2)Gal(b1-4)GlcNAc(b1-2)Man(a1-6)]Man(b1-4)GlcNAc(b1-4)[Fuc(a1-6)]GlcNAc
# In short: as §1
# [23] = target: Fuc(a1-2)Gal(b1-4)GlcNAc(b1-2)[Fuc(a1-2)Gal(b1-4)GlcNAc(b1-4)]Man(a1-3)[Fuc(a1-2)Gal(b1-4)GlcNAc(b1-2)Man(a1-6)]Man(b1-4)GlcNAc(b1-4)GlcNAc
# In short: as §1
# [24] = target: Fuc(a1-2)Gal(b1-4)GlcNAc(b1-3)Gal(b1-4)GlcNAc
# In short: as §1
# [25] = target: Fuc(a1-2)Gal(b1-4)GlcNAc(b1-3)Gal(b1-4)GlcNAc(b1-3)Gal(b1-4)GlcNAc
# In short: as §1
# [26] = target: Fuc(a1-2)Gal(b1-4)GlcNAc(b1-3)GalNAc
# In short: as §1
# [27] = target: Fuc(a1-2)Gal(b1-4)GlcNAc(b1-3)[Fuc(a1-2)Gal(b1-4)GlcNAc(b1-6)]GalNAc
# In short: as §1
# [28] = target: Fuc(a1-2)Gal(b1-4)GlcNAc(b1-6)GalNAc
# In short: as §1
# [29] = target: Fuc(a1-2)Gal(b1-4)GlcNAc6S
# In short: as §1
# [30] = target: Fuc(a1-2)Gal(b1-4)[Fuc(a1-3)]GlcNAc
# In short: as §1
# [31] = target: Fuc(a1-2)Gal(b1-4)[Fuc(a1-3)]GlcNAc(b1-2)Man(a1-3)[Fuc(a1-2)Gal(b1-4)[Fuc(a1-3)]GlcNAc(b1-2)Man(a1-6)]Man(b1-4)GlcNAc(b1-4)GlcNAc
# In short: as §1
# [32] = target: Fuc(a1-2)Gal(b1-4)[Fuc(a1-3)]GlcNAc(b1-2)Man(a1-6)[Fuc(a1-2)Gal(b1-4)[Fuc(a1-3)]GlcNAc(b1-2)Man(a1-3)]Man(b1-4)GlcNAc(b1-4)[Fuc(a1-6)]GlcNAc
# In short: as §1
# [33] = target: Fuc(a1-2)Gal(b1-4)[Fuc(a1-3)]GlcNAc(b1-2)[Fuc(a1-2)Gal(b1-4)[Fuc(a1-3)]GlcNAc(b1-4)]Man(a1-3)[Fuc(a1-2)Gal(b1-4)[Fuc(a1-3)]GlcNAc(b1-2)Man(a1-6)]Man(b1-4)GlcNAc(b1-4)GlcNAc
# In short: as §1
# [34] = target: Fuc(a1-2)Gal(b1-4)[Fuc(a1-3)]GlcNAc(b1-3)Gal(b1-4)[Fuc(a1-3)]GlcNAc
# In short: as §1
# [35] = target: Fuc(a1-2)Gal(b1-4)[Fuc(a1-3)]GlcNAc(b1-3)Gal(b1-4)[Fuc(a1-3)]GlcNAc(b1-3)Gal(b1-4)[Fuc(a1-3)]GlcNAc
# In short: as §1
# [36] = target: Fuc(a1-2)Gal(b1-4)[Fuc(a1-3)]GlcNAc(b1-3)GalNAc
# In short: as §1
# [37] = target: Fuc(a1-2)Gal(b1-4)[Fuc(a1-3)]GlcNAc(b1-3)[Neu5Ac(a2-6)Gal(b1-4)GlcNAc(b1-6)]Gal(b1-4)Glc
# In short: as §1
# [38] = target: Fuc(a1-2)Gal6S(b1-3)GlcNAc
# In short: as §1
# [39] = target: Fuc(a1-2)Gal6S(b1-3)GlcNAc6S
# In short: as §1
binder,measurement,setting,value
"RVL (Remusatia vivipara), B5LYJ9 (protein) MAKLLLFLLPAILGLLVPRSAVALGTNYLLSGQTLDTEGHLKNGDFDLVMQDDCNLVLYNGNWQSNTANNGRDCKLTLTDYGELVIKNGDGSTVWKSGAQSVKGNYAAVVHPDGRLVVLGPSVFKIDPWVRGLNSLRFRNIPFTNNLLFSGQVLYGDGRLTAKNHQLVMQGDCNLVLYGGKYGWQSNTHGNGEHCFLRLNHKGELIIKDDDFKTIWSSRSSSKQGEYVLILQDDGFGVIYGPAIFETSSKRSIAAS",glycan array binding signal (z-score),Fuc(a1-2)Gal,-0.155
same,glycan array binding signal (z-score),Fuc(a1-2)Gal(b1-3)GalNAc,-0.203
same,glycan array binding signal (z-score),[1],-0.167
same,glycan array binding signal (z-score),[2],-0.253
same,glycan array binding signal (z-score),[3],-0.201
same,glycan array binding signal (z-score),[4],-0.225
same,glycan array binding signal (z-score),[5],-0.119
same,glycan array binding signal (z-score),Fuc(a1-2)Gal(b1-3)GlcNAc,-0.158
same,glycan array binding signal (z-score),[6],-0.041
same,glycan array binding signal (z-score),[7],-0.138
same,glycan array binding signal (z-score),[8],-0.256
same,glycan array binding signal (z-score),[9],-0.196
same,glycan array binding signal (z-score),[10],-0.152
same,glycan array binding signal (z-score),[11],-0.102
same,glycan array binding signal (z-score),[12],-0.223
same,glycan array binding signal (z-score),[13],0.081
same,glycan array binding signal (z-score),[14],0.21
same,glycan array binding signal (z-score),[15],-0.3
same,glycan array binding signal (z-score),[16],1.29
same,glycan array binding signal (z-score),[17],0.351
same,glycan array binding signal (z-score),[18],-0.211
same,glycan array binding signal (z-score),[19],-0.055
same,glycan array binding signal (z-score),Fuc(a1-2)Gal(b1-4)Glc,-0.2
same,glycan array binding signal (z-score),Fuc(a1-2)Gal(b1-4)Glc6S,-0.189
same,glycan array binding signal (z-score),Fuc(a1-2)Gal(b1-4)GlcNAc,-0.153
same,glycan array binding signal (z-score),[20],-0.16
same,glycan array binding signal (z-score),[21],0.207
same,glycan array binding signal (z-score),[22],0.385
same,glycan array binding signal (z-score),[23],0.028
same,glycan array binding signal (z-score),[24],-0.238
same,glycan array binding signal (z-score),[25],-0.272
same,glycan array binding signal (z-score),[26],0.71
same,glycan array binding signal (z-score),[27],-0.078
same,glycan array binding signal (z-score),[28],0.014
same,glycan array binding signal (z-score),[29],-0.122
same,glycan array binding signal (z-score),[30],-0.153
same,glycan array binding signal (z-score),[31],0.001
same,glycan array binding signal (z-score),[32],9.79
same,glycan array binding signal (z-score),[33],0.086
same,glycan array binding signal (z-score),[34],-0.21
same,glycan array binding signal (z-score),[35],-0.151
same,glycan array binding signal (z-score),[36],0.52
same,glycan array binding signal (z-score),[37],-0.316
same,glycan array binding signal (z-score),[38],-0.266
same,glycan array binding signal (z-score),[39],0.483
